# Laboratory results published in PubChem BioAssay AID743255 (National Center for Advancing Translational Sciences (NCATS), 2014).
# Hit rate of the full screen: of about 390,000 compounds, about 910 (0.23%) were called active. Not shown: some 5% with an inconclusive outcome. Calls follow the shape of the dose curve; as a rule, active = well fitted inhibition curve with a large enough effect; inconclusive = small, poorly fitted or top-dose-only effect; inactive = no such curve, though single readings can be large or run the other way. The entries are a selection whose mix differs from that of the whole data set.
# Target: Ubiquitin carboxyl-terminal hydrolase 1 (Homo sapiens) (UniProt O94782)
# Chain of UniProt O94782 (O94782 whole entry, looked up): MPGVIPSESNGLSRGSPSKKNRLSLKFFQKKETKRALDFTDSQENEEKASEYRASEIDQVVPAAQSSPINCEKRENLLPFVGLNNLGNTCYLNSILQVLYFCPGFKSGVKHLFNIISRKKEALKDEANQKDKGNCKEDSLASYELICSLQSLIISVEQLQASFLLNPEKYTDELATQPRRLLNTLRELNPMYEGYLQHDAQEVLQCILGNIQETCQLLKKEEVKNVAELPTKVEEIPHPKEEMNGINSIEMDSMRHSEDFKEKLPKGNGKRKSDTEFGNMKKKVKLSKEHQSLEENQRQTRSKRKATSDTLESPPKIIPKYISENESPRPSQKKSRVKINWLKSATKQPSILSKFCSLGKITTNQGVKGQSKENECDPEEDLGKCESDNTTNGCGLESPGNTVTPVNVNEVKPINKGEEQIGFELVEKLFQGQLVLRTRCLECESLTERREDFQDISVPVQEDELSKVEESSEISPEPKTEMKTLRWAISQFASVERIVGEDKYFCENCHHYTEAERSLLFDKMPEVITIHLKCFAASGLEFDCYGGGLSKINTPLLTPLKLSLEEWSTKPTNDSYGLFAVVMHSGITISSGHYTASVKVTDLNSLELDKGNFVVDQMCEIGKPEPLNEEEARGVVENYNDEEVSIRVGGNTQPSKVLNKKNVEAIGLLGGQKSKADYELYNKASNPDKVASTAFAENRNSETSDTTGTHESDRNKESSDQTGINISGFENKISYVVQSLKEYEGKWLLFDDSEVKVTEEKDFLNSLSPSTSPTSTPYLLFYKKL
# Assay: Inhibitors of USP1/UAF1: Primary Screen; also: nearly all actives have a fitted effect of over 60% in size
# Conditions: recombinant USP1/UAF1, Ub-Rhodamine cleavage fluorescence; activity change, negative = inhibition: at 57.1 µM (top of the series)
# Text: Deubiquitinating enzymes (DUBs) are a class of enzymes that can cleave isopeptide bond formed between the C-terminal carboxylate of ubiquitin and a lysine side-chain amino group on the target protein. Among them, ubiquitin specific proteases (USPs) constitute the largest DUB family. Human USPs are emerging as promising targets for pharmacological intervention because of their connection to a number of human diseases, including prostate, colon and breast cancer (1, 2), pediatric acute lymphoblastic leukemia (3), and familial cylindromatosis (4). The advantage of inhibiting USPs lies in the potential specificity of therapeutic intervention that can lead to better efficacy and reduce nonspecific side effects. In a collaboration between the University of Delaware and the NIH Chemical Genomics Center, a high-throughput screen assay was developed to screen for USP1/UAF1 inhibitors. This miniaturized assay has a fluorescent read-out and is used to screen the NIH Molecular Libraries Small Molecule Repository (MLSMR) in order to identify a small molecule that inhibits USP1. NIH Chemical Genomics Center [NCGC] NIH Molecular Libraries Probe Centers Network [MLPCN] MLPCN Grant: DA030552 Assay Submitter (PI): Zhihao Zhuang, University of Delaware 1. Priolo, C., et al. (2006) The isopeptidase USP2a protects human prostate cancer from apoptosis. Cancer Res 66, 8625-8632 2. Popov, N., et al. (2007) The ubiquitin-specific protease USP28 is required for MYC stability. Nat Cell Biol 9, 765-774 3. De Pitta, C., et al. (2005) A leukemia-enriched cDNA microarray platform identifies new transcripts with relevance to the biology of pediatric acute lymphoblastic leukemia. Haematologica 90, 890-898 4. Kovalenko, A., et al. (2003) The tumour suppressor CYLD negatively regulates NF-kappaB signalling by deubiquitination. Nature 424, 801-805
# 3 microliters of reagents (buffer in columns 3 and 4 as negative control and 1nM USP1/UAF1 complex in columns 1, 2, and 5-48) are dispensed into Greiner black solid bottom 1536-well assay plates. Compounds are then transferred via Kalypsys pin tool equipped with 1536-pin array (10nl slotted pins, V&P Scientific, San Diego, CA). Following an incubation step of 15 min at room temperature, 1ul of Ub-Rho substrate (150nM final concentration) is added to initiate the reaction. The plates are immediately centrifuged at 1000 rpm for 15 seconds, and subsequently transferred to a ViewLux high-throughput CCD imager (PerkinElmer) wherein kinetic measurements of fluorescence are acquired using 480 nm excitation/540 nm emission filter set (6 reads every 60 seconds, see Table 1). All reagents are diluted in an assay buffer consisting of 50mM HEPES (pH 7.8), 0.5mM EDTA, 0.1 mg/ml BSA, 1mM TCEP, and 0.01% Tween-20.
# % is scaled to controls: 0 for no effect and ±100 for the full control effect; potency is read from the fitted curve at half-maximal effect.
SMILES,"activity change, negative = inhibition",Potency
Cc1ccc(NC(=S)N2CCC(c3nc4ccccc4s3)CC2)cc1C,inactive: 34.1%,–
CCN1C(=O)[C@H]2[C@@H](c3ccc(-c4ccc(C(C)=O)cc4)c(OC)c3)N3CCCC[C@@]3(C(=O)OC)[C@H]2C1=O,inactive: -25.1%,–
CCN(CC)c1ccc(/C=C/c2cc(-c3ccccc3)c3ccccc3n2)cc1,inactive: 264%,–
C=CCC[C@H](Cc1ccc(F)cc1)C(=O)OC[C@H](C)NC(=O)[C@H](CC=C)CC(=O)N(CCO)Cc1ccccc1,inactive: -7.46%,–
COc1ccc(S(=O)(=O)N(C)C[C@@H]2OCc3cnnn3CCCC(=O)N([C@H](C)CO)C[C@@H]2C)cc1,inactive: -23.2%,–
CC(C)(C)OC(=O)C[C@H]1C/C=C\C[C@H](CC(=O)N(CCO)Cc2ccccc2)C(=O)N[C@H](C(C)(C)C)COC1=O,inactive: -14.1%,–
COc1ccc2cc(CNc3ccccc3)c(=O)n(CC(=O)Nc3ccc(C)cc3C)c2c1,inactive: 18.7%,–
CCOC(=O)C1=C(c2ccccc2)N=c2s/c(=C\c3cc(OC)c(OC)c(OC)c3)c(=O)n2C1c1cccs1 (stereo unspecified),–,active: 22.4 µM
C[C@H](CO)N1C[C@H](C)[C@@H](CN(C)C(=O)Nc2ccc(C(F)(F)F)cc2)Oc2c(NC(=O)NC3CCCCC3)cccc2C1=O,inactive: -4.89%,–
O=C(CN(c1ccc(F)cc1)S(=O)(=O)c1ccc2c(c1)OCCO2)NCc1ccccc1,inactive: 41.7%,–
O=C(CSc1nc2c([nH]c3ccccc32)c(=O)n1-c1cccc(Cl)c1)N1CCOCC1,inactive: -22.7%,–
COC1=C(Br)C(=O)c2nc(C)ccc2C1=O,–,active: 25.1 µM
C[C@H]1CN([C@@H](C)CO)C(=O)CCCn2nncc2CO[C@@H]1CN(C)C(=O)c1ccc(N2CCN(C)CC2)cc1,inactive: -16.4%,–
COc1cc(NC(=O)c2cncc(-c3ccc(C#N)cc3)c2)cc(C(=O)Nc2cccc(C(F)(F)F)c2)c1,inactive: -24.3%,–
CCc1c(C)nc(SCC(=O)c2cccs2)c(C#N)c1C,inactive: 189%,–
COc1ccc(-c2cc(C(=O)Nc3ccc4c(c3)OCO4)no2)cc1OC,inactive: -14.4%,–
COC(C[C@@H]1O[C@@H]1[C@H](O)[C@H](C)OCc1ccccc1)OC,inactive: -16.2%,–
C=CCCC(=O)Nc1nc(C)c(-c2csc(Nc3ccc(Cl)cc3)n2)s1,inactive: 19.7%,–
C[C@@H]1CN([C@H](C)CO)C(=O)CCCn2nncc2CO[C@@H]1CN(C)C(=O)Nc1ccc2c(c1)OCO2,inactive: -21%,–
COC(=O)N(C)C[C@@H]1OCc2cnnn2CCCC(=O)N([C@H](C)CO)C[C@@H]1C,inactive: -24.2%,–
C=CC[C@@H](CC(=O)N[C@H](CO)Cc1ccccc1)C(=O)N[C@@H](COC(=O)[C@@H](CC=C)Cc1ccc(F)cc1)Cc1c[nH]c2ccccc12,inactive: -10%,–

SMILES,"activity change, negative = inhibition",Potency
COc1ccc(Cn2c(O)c(/C=N/NC(=O)c3cccnc3)c3ccccc3c2=O)cc1,–,active: 31.6 µM
C=CC[C@H](CC(=O)N[C@H](CO)Cc1ccccc1)C(=O)N[C@@H](COC(=O)[C@@H](CC=C)Cc1ccc(F)cc1)Cc1c[nH]c2ccccc12,inactive: 7.67%,–
COc1ccc(CNC(=O)C2CCC(CNS(=O)(=O)c3cccs3)CC2)cc1 (stereo unspecified),inactive: -14.2%,–
Cc1ccc(C)c(C(=O)COC(=O)CCCC(=O)Nc2cc(C(F)(F)F)ccc2Cl)c1,inactive: -23.4%,–
C[C@@H]1CN([C@@H](C)CO)S(=O)(=O)c2ccc(Br)cc2O[C@H]1CN(C)C(=O)c1cccc(F)c1,inactive: -13.2%,–
CCOc1cccc2cc(-c3nc4sc(C(=O)Nc5ccc(C)cc5)c(C)c4c(=O)[nH]3)c(=O)oc12,inactive: 53.6%,–
C[C@H](CO)N1C[C@H](C)[C@H](CN(C)C(=O)c2ccccc2)OCc2cnnn2CCCC1=O,inactive: -31%,–
C[C@H]1CN([C@@H](C)CO)C(=O)CCCn2nncc2CO[C@@H]1CN(C)S(=O)(=O)c1ccc(Oc2ccccc2)nc1,inactive: -22.8%,–
O=C(NC1CC(=O)N(c2ccccc2)C1)c1ccc(S(=O)(=O)N2CCOCC2)cc1 (stereo unspecified),inactive: 3.36%,–
C[C@@H]1CN([C@@H](C)CO)C(=O)CCCn2nncc2CO[C@@H]1CN(C)C(=O)c1ccc2ccn(C)c2c1,inactive: -24.3%,–
CCOC1=C/C(=C/c2c(N)n3nc(CC(=O)N4CCCCC4)sc3nc2=O)C=CC1=O,inactive: 37%,–
N#CC1=C2SCN(Cc3ccco3)CN2C(=O)CC1c1c(F)cccc1Cl (stereo unspecified),–,active: 12.6 µM
C[C@H]1COC(=O)[C@@H](Cc2ccc(F)cc2)C/C=C\C[C@H](CC(=O)NCCO)C(=O)N1,inactive: -6.21%,–
C[C@@H]1COC(=O)[C@@H](NC(=O)OCC2c3ccccc3-c3ccccc32)C/C=C\C[C@@H](CC(=O)N(CCO)Cc2ccccc2)C(=O)N1,inactive: -20.3%,–
COC(=O)c1nnn(CC(=O)NC(=O)Nc2ccccc2F)c1C(=O)OC,inactive: -3.83%,–
COc1ccccc1C(=O)Nc1cc(-c2ccc(C)cc2)no1,inactive: -6.48%,–
O=C(O)c1ccc(-c2ccc(/C=N/Nc3ccc([N+](=O)[O-])cc3)o2)cc1,–,active: 12.6 µM
C[C@H](CO)N1C[C@H](C)[C@@H](CN(C)CC2CCCCC2)Oc2c(NC(=O)C3CC3)cccc2C1=O,inactive: -19.2%,–
C[C@H]1CN=C2N(CCNC(=O)CCC3CCCCC3)[C@H](Cc3ccc(O)cc3)CN21,inactive: 3.83%,–
COC(=O)N(C)C[C@H]1OCc2cnnn2CCCC(=O)N([C@@H](C)CO)C[C@@H]1C,inactive: -13.5%,–
